Source: PubChem BioAssay AID504466 (National Center for Advancing Translational Sciences (NCATS), 2011)
Out of some 330,000 compounds screened, about 4,200 (1.3%) were called active. The inconclusive results got no clear call from the source; some entries with a clear call stand among them for comparison. The call rests on the fitted dose curve; in most records, active means well fitted activation curve with a large enough effect; inconclusive means small, poorly fitted or top-dose-only effect; inactive means no such curve, though single readings can be large or run the other way. Potencies beside an inconclusive call are fits to weak or partial responses and may not hold up.

Experiment: qHTS screen for small molecules that induce genotoxicity in human embryonic kidney (HEK293T) cells expressing luciferase-tagged ELG1; further: nearly all actives have a fitted effect of over 60% in size
Conditions: HEK293T ELG1-luciferase reporter, luminescence, 16 h; series mostly up to 46 µM
Procedure, shortened: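 Quantitative HTS format in 1536-well plates. HEK293T ELG1-luciferase reporter cells receive test compound and are incubated 16 hr at 37 °C, 5% CO2; ONE-Glo added, 30 min room temperature, then luminescence read.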
Potency means the concentration at half of the fitted maximal effect; tags describe the fitted curve by direction and shape.

Row | Compound | Potency
1 | CCN(CC)c1ccc(C(=S)NC2CCCCC2)cc1 | inconclusive: 23.1 µM [activator, partial curve, poor fit]
2 | Clc1ccsc1-c1csc(-c2cccnc2)n1 | inconclusive: 23.1 µM [activator, single point]
3 | CCCCOC(=O)Nc1nnc(CC)s1 | active: 14.6 µM
4 | Cc1nn2cc(-c3cccc(Cl)c3)cnc2c1Cl | inactive
5 | O=C(NCC1CCCO1)c1cc(-c2ccc(F)cc2)no1 (stereo unspecified) | inconclusive: 23.1 µM [activator, single point]
6 | Cc1nc2ccc(NC(=O)N(C)c3ccccc3)cc2s1 | inconclusive: 18.4 µM [activator, partial curve, poor fit]
7 | COc1ccc(CC(=O)Nc2ccc(-c3nnc(-c4ccccc4)o3)cc2)cc1 | inconclusive: 11.6 µM [activator, partial curve]
8 | CN(C)c1ccc(-c2nc3cc(N)ccc3o2)cc1 | active: 0.517 µM
9 | COC(=O)c1c(-c2ccc(Br)cc2)noc1N | inconclusive: 16.4 µM [activator, partial curve, poor fit]
10 | O=c1[nH]c(SCc2ccccc2Cl)nc2[nH]ncc12 | inconclusive: 13 µM [activator, partial curve, poor fit]
11 | O=C(Nc1cccc2ccccc12)c1ccc([N+](=O)[O-])o1 | inactive
12 | COc1ccc(CC(=O)N2N=C(C)CC2(O)c2cccnc2)cc1 (stereo unspecified) | inconclusive: 25.1 µM [activator, single point]
13 | O=C(/C=C/c1ccc(F)cc1)Nc1nc2ccccc2[nH]1 | inconclusive: 2.06 µM [activator, full curve]
14 | COc1ccc(-c2csc(Cc3nc(O)cs3)n2)cc1 | inconclusive: 3.66 µM [activator, full curve]
15 | COc1ccc(NC(=O)/C(C#N)=C\c2cc(OC)c(OCc3ccc(C(=O)O)cc3)cc2Br)cc1 | inconclusive: 16.4 µM [activator, partial curve, poor fit]
16 | S=C(Nc1ccc(Cl)cc1)NC1CC2CCCC(C1)N2C1CC1 (stereo unspecified) | inactive
17 | CCC(=O)c1ccc(OCc2ccc(C(=O)OC)cc2)cc1 | inconclusive: 2.31 µM [activator, partial curve]
18 | Brc1ccc2oc(-c3ccn[nH]3)cc2c1 | inconclusive: 9.2 µM [activator, partial curve]
19 | O=C(NC(=S)N1CCCC(O)C1)c1ccco1 (stereo unspecified) | inactive
20 | COc1ccc(-n2ccn(CC(=O)Nc3ccccc3OC)c(=O)c2=O)cc1 | inactive
21 | COC(=O)Cn1c(SCc2ccccc2)nc2ccccc21 | inconclusive: 16.4 µM [activator, partial curve]
